The list shows a part of the results.
Assays:
Experiment in all cases: glycan array binding signal (z-score within array); higher = stronger binding
Settings in all cases: glycan notation: IUPAC condensed, linker removed
[1] = biological target: Gal(b1-4)GlcNAc(b1-3)Gal(b1-4)GlcNAc(b1-3)Gal(b1-4)GlcNAc(b1-3)Gal(b1-4)GlcNAc(b1-3)Gal(b1-4)GlcNAc(b1-2)Man(a1-3)[Gal(b1-4)GlcNAc(b1-3)Gal(b1-4)GlcNAc(b1-3)Gal(b1-4)GlcNAc(b1-3)Gal(b1-4)GlcNAc(b1-3)Gal(b1-4)GlcNAc(b1-2)Man(a1-6)]Man(b1-4)GlcNAc(b1-4)GlcNAc
Method in brief: (§1)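 The Consortium for Functional Glycomics database supplied 3228 glycan arrays, of which those lacking an available protein sequence were dropped. The binding signal, a within-array Z-score, was averaged across arrays of the same protein sequence and across linkers. Negative scores can be read as non-binding.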

[2] = biological target: Gal(b1-4)GlcNAc(b1-3)Gal(b1-4)GlcNAc(b1-3)Gal(b1-4)GlcNAc(b1-3)Gal(b1-4)GlcNAc(b1-3)Gal(b1-4)GlcNAc(b1-2)Man(a1-3)[Gal(b1-4)GlcNAc(b1-3)Gal(b1-4)GlcNAc(b1-3)Gal(b1-4)GlcNAc(b1-3)Gal(b1-4)GlcNAc(b1-3)Gal(b1-4)GlcNAc(b1-2)Man(a1-6)]Man(b1-4)GlcNAc(b1-4)[Fuc(a1-6)]GlcNAc
Method in brief: as §1

[3] = biological target: Gal(b1-4)GlcNAc(b1-3)Gal(b1-4)GlcNAc(b1-3)Gal(b1-4)GlcNAc(b1-3)Gal(b1-4)GlcNAc(b1-3)Gal(b1-4)GlcNAc(b1-2)[Gal(b1-4)GlcNAc(b1-3)Gal(b1-4)GlcNAc(b1-3)Gal(b1-4)GlcNAc(b1-3)Gal(b1-4)GlcNAc(b1-3)Gal(b1-4)GlcNAc(b1-6)]Man(a1-6)[Gal(b1-4)GlcNAc(b1-3)Gal(b1-4)GlcNAc(b1-3)Gal(b1-4)GlcNAc(b1-3)Gal(b1-4)GlcNAc(b1-3)Gal(b1-4)GlcNAc(b1-2)Man(a1-3)]Man(b1-4)GlcNAc(b1-4)[Fuc(a1-6)]GlcNAc
Method in brief: as §1

[4] = biological target: Gal(b1-4)GlcNAc(b1-3)Gal(b1-4)GlcNAc(b1-3)Gal(b1-4)GlcNAc(b1-3)Gal(b1-4)GlcNAc(b1-3)Gal(b1-4)GlcNAc(b1-3)Gal(b1-4)GlcNAc(b1-2)Man(a1-3)[Gal(b1-4)GlcNAc(b1-3)Gal(b1-4)GlcNAc(b1-3)Gal(b1-4)GlcNAc(b1-3)Gal(b1-4)GlcNAc(b1-3)Gal(b1-4)GlcNAc(b1-3)Gal(b1-4)GlcNAc(b1-2)Man(a1-6)]Man(b1-4)GlcNAc(b1-4)GlcNAc
Method in brief: as §1

[5] = biological target: Gal(b1-4)GlcNAc(b1-3)Gal(b1-4)GlcNAc(b1-3)GalNAc
Method in brief: as §1

[6] = biological target: Gal(b1-4)GlcNAc(b1-3)Gal(b1-4)GlcNAc(b1-3)[Gal(b1-4)GlcNAc(b1-3)Gal(b1-4)GlcNAc(b1-6)]GalNAc
Method in brief: as §1

[7] = biological target: Gal(b1-4)GlcNAc(b1-3)Gal(b1-4)GlcNAc(b1-6)[Gal(b1-3)]GalNAc
Method in brief: as §1

[8] = biological target: Gal(b1-4)GlcNAc(b1-3)Gal(b1-4)[Fuc(a1-3)]GlcNAc(b1-3)Gal(b1-4)[Fuc(a1-3)]GlcNAc
Method in brief: as §1

[9] = biological target: Gal(b1-4)GlcNAc(b1-3)GalNAc
Method in brief: as §1

[10] = biological target: Gal(b1-4)GlcNAc(b1-3)[Fuc(a1-3)GlcNAc(b1-6)]Gal(b1-4)Glc
Method in brief: as §1

[11] = biological target: Gal(b1-4)GlcNAc(b1-3)[Gal(b1-4)GlcNAc(b1-6)]Gal(b1-4)GlcNAc
Method in brief: as §1

[12] = biological target: Gal(b1-4)GlcNAc(b1-3)[Gal(b1-4)GlcNAc(b1-6)]GalNAc
Method in brief: as §1

[13] = biological target: Gal(b1-4)GlcNAc(b1-3)[GlcNAc(b1-6)]Gal(b1-4)GlcNAc
Method in brief: as §1

[14] = biological target: Gal(b1-4)GlcNAc(b1-6)Gal(b1-4)GlcNAc
Method in brief: as §1

[15] = biological target: Gal(b1-4)GlcNAc(b1-6)Gal(b1-4)GlcNAc(b1-6)GalNAc
Method in brief: as §1

[16] = biological target: Gal(b1-4)GlcNAc(b1-6)GalNAc
Method in brief: as §1

[17] = biological target: Gal(b1-4)GlcNAc(b1-6)[Gal(b1-3)]GalNAc
Method in brief: as §1

[18] = biological target: Gal(b1-4)GlcNAc(b1-6)[Gal(b1-4)GlcNAc(b1-3)]GalNAc
Method in brief: as §1

Gal(b1-4)GlcNAc6P = biological target: Gal(b1-4)GlcNAc6P
Method in brief: as §1

Gal(b1-6)Gal = biological target: Gal(b1-6)Gal
Method in brief: as §1

Gal3S(b1-3)GalNAc = biological target: Gal3S(b1-3)GalNAc
Method in brief: as §1

Gal3S(b1-3)GlcNAc = biological target: Gal3S(b1-3)GlcNAc
Method in brief: as §1

[19] = biological target: Gal3S(b1-3)[Fuc(a1-4)]GlcNAc
Method in brief: as §1

Gal3S(b1-4)Glc = biological target: Gal3S(b1-4)Glc
Method in brief: as §1

Gal3S(b1-4)Glc6S = biological target: Gal3S(b1-4)Glc6S
Method in brief: as §1

Gal3S(b1-4)GlcNAc = biological target: Gal3S(b1-4)GlcNAc
Method in brief: as §1

Gal3S(b1-4)GlcNAc6S = biological target: Gal3S(b1-4)GlcNAc6S
Method in brief: as §1

[20] = biological target: Gal3S(b1-4)[Fuc(a1-3)]Glc6S
Method in brief: as §1

[21] = biological target: Gal3S(b1-4)[Fuc(a1-3)]GlcNAc
Method in brief: as §1

[22] = biological target: Gal3S(b1-4)[Fuc(a1-3)]GlcNAc6S
Method in brief: as §1

Gal3S4S(b1-4)GlcNAc = biological target: Gal3S4S(b1-4)GlcNAc
Method in brief: as §1

Gal3S6S(b1-4)GlcNAc = biological target: Gal3S6S(b1-4)GlcNAc
Method in brief: as §1

Gal3S6S(b1-4)GlcNAc6S = biological target: Gal3S6S(b1-4)GlcNAc6S
Method in brief: as §1

Gal4S(b1-4)GlcNAc = biological target: Gal4S(b1-4)GlcNAc
Method in brief: as §1

Gal4S6S(b1-4)GlcNAc = biological target: Gal4S6S(b1-4)GlcNAc
Method in brief: as §1

Gal6P(b1-4)GlcNAc = biological target: Gal6P(b1-4)GlcNAc
Method in brief: as §1

Gal6S(b1-3)GlcNAc = biological target: Gal6S(b1-3)GlcNAc
Method in brief: as §1

Gal6S(b1-3)GlcNAc6S = biological target: Gal6S(b1-3)GlcNAc6S
Method in brief: as §1

Gal6S(b1-4)Glc = biological target: Gal6S(b1-4)Glc
Method in brief: as §1

Gal6S(b1-4)Glc6S = biological target: Gal6S(b1-4)Glc6S
Method in brief: as §1

Gal6S(b1-4)GlcNAc = biological target: Gal6S(b1-4)GlcNAc
Method in brief: as §1

Gal6S(b1-4)GlcNAc6S = biological target: Gal6S(b1-4)GlcNAc6S
Method in brief: as §1

GalNAc(a1-3)Gal = biological target: GalNAc(a1-3)Gal
Method in brief: as §1

GalNAc(a1-3)GalNAc = biological target: GalNAc(a1-3)GalNAc
Method in brief: as §1

[23] = biological target: GalNAc(a1-3)GalNAc(a1-3)Gal(a1-4)Gal(b1-4)GlcNAc
Method in brief: as §1

B1: WGA (Triticum vulgare) (protein)
chain: QRCGEQGSNMECPNNLCCSQYGYCGMGGDYCGKGCQNGACWTSKRCGSQAGGATCPNNHCCSQYGHCGFGAEYCGAGCQGGPCRADIKCGSQSGGKLCPNNLCCSQWGFCGLGSEFCGGGCQSGACSTDKPCGKDAGGRVCTNNYCCSKWGSCGIGPGYCGAGCQSGGCDAVFAGAITANSTLLAE
Question: For B1, which “glycan array binding signal (z-score)” value [1] is on record?
Answer: 0.112

Question: And the “glycan array binding signal (z-score)” value [2]?
Answer: 0.223

Question: What about the “glycan array binding signal (z-score)” value [3] of the same binder?
Answer: 0.244

Question: And the “glycan array binding signal (z-score)” value [4]?
Answer: 0.072

Question: And the “glycan array binding signal (z-score)” value [5]?
Answer: 0.012

Question: And the “glycan array binding signal (z-score)” value [6]?
Answer: 0.058

Question: And the “glycan array binding signal (z-score)” value [7]?
Answer: -0.072

Question: What about the “glycan array binding signal (z-score)” value [8] of the same binder?
Answer: -0.337

Question: And the “glycan array binding signal (z-score)” value [9]?
Answer: -0.349

Question: And the “glycan array binding signal (z-score)” value [10]?
Answer: -0.275

Question: What about the “glycan array binding signal (z-score)” value [11] of the same binder?
Answer: -0.18

Question: What about the “glycan array binding signal (z-score)” value [12] of the same binder?
Answer: 1.38

Question: And the “glycan array binding signal (z-score)” value [13]?
Answer: 1.62

Question: What about the “glycan array binding signal (z-score)” value [14] of the same binder?
Answer: 0.334

Question: What about the “glycan array binding signal (z-score)” value [15] of the same binder?
Answer: 1.21

Question: What about the “glycan array binding signal (z-score)” value [16] of the same binder?
Answer: 1.02

Question: And the “glycan array binding signal (z-score)” value [17]?
Answer: -0.191

Question: What about the “glycan array binding signal (z-score)” value [18] of the same binder?
Answer: -0.248

Question: What about the “glycan array binding signal (z-score)” value (Gal(b1-4)GlcNAc6P) of the same binder?
Answer: -0.265

Question: And the “glycan array binding signal (z-score)” value (Gal(b1-6)Gal)?
Answer: -0.357

Question: What about the “glycan array binding signal (z-score)” value (Gal3S(b1-3)GalNAc) of the same binder?
Answer: -0.365

Question: And the “glycan array binding signal (z-score)” value (Gal3S(b1-3)GlcNAc)?
Answer: -0.339

Question: What about the “glycan array binding signal (z-score)” value [19] of the same binder?
Answer: -0.336

Question: And the “glycan array binding signal (z-score)” value (Gal3S(b1-4)Glc)?
Answer: -0.343

Question: What about the “glycan array binding signal (z-score)” value (Gal3S(b1-4)Glc6S) of the same binder?
Answer: -0.354

Question: And the “glycan array binding signal (z-score)” value (Gal3S(b1-4)GlcNAc)?
Answer: -0.265

Question: And the “glycan array binding signal (z-score)” value (Gal3S(b1-4)GlcNAc6S)?
Answer: -0.263

Question: What about the “glycan array binding signal (z-score)” value [20] of the same binder?
Answer: -0.202

Question: And the “glycan array binding signal (z-score)” value [21]?
Answer: -0.345

Question: And the “glycan array binding signal (z-score)” value [22]?
Answer: -0.264

Question: What about the “glycan array binding signal (z-score)” value (Gal3S4S(b1-4)GlcNAc) of the same binder?
Answer: -0.074

Question: And the “glycan array binding signal (z-score)” value (Gal3S6S(b1-4)GlcNAc)?
Answer: -0.383

Question: And the “glycan array binding signal (z-score)” value (Gal3S6S(b1-4)GlcNAc6S)?
Answer: -0.356

Question: And the “glycan array binding signal (z-score)” value (Gal4S(b1-4)GlcNAc)?
Answer: 0.744

Question: What about the “glycan array binding signal (z-score)” value (Gal4S6S(b1-4)GlcNAc) of the same binder?
Answer: -0.388

Question: What about the “glycan array binding signal (z-score)” value (Gal6P(b1-4)GlcNAc) of the same binder?
Answer: -0.418

Question: And the “glycan array binding signal (z-score)” value (Gal6S(b1-3)GlcNAc)?
Answer: -0.372

Question: What about the “glycan array binding signal (z-score)” value (Gal6S(b1-3)GlcNAc6S) of the same binder?
Answer: -0.395

Question: And the “glycan array binding signal (z-score)” value (Gal6S(b1-4)Glc)?
Answer: -0.342

Question: And the “glycan array binding signal (z-score)” value (Gal6S(b1-4)Glc6S)?
Answer: -0.321

Question: What about the “glycan array binding signal (z-score)” value (Gal6S(b1-4)GlcNAc) of the same binder?
Answer: -0.369

Question: What about the “glycan array binding signal (z-score)” value (Gal6S(b1-4)GlcNAc6S) of the same binder?
Answer: -0.371

Question: What about the “glycan array binding signal (z-score)” value (GalNAc(a1-3)Gal) of the same binder?
Answer: 0.581

Question: And the “glycan array binding signal (z-score)” value (GalNAc(a1-3)GalNAc)?
Answer: -0.302

Question: And the “glycan array binding signal (z-score)” value [23]?
Answer: -0.324

From the supplement of paper PMC8728848
